# ± gives the standard deviation of the averaged measurements. The list shows a part of the results.
# Tested on: PfAP2-EXP AP2 domain (GST-tagged)
# Experiment: gcPBM binding intensity (ln(normalized median fluorescence intensity)); higher = stronger DNA binding
# Procedure, shortened: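 Each value is the highest Masliner-normalised natural-log median intensity across replicate spots of either orientation of a probe. The probes were primer-extended double-stranded 36-bp intergenic genomic sequences on an Agilent 4 × 180k array, alongside negative controls, exposed for 1 h to GST-tagged P. falciparum DNA-binding domains expressed in E. coli. Bound protein was picked up with Alexa488 anti-GST antibody and scanned at 488 nm.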
row,Sequence,gcPBM binding intensity (ln)
1,AAATTATTATATATATGTACGTATAATGTATTTTGT [XGTACX_site2903],8.4 ± 0.35
2,AAATATAGAATACATGTGCACATAATATATATATAT,9.82 ± 0.29
3,TTTGTATCTATATATTGTACGAATTACTTTCATTTA [XGTACX_site4785],8.62 ± 0.33
4,TCTTTTTAAGGGATTTTTTTTTTTTTTTTAAAAAGA [CACACA_negctrl_site1274],8.07 ± 0.53
5,AATACAATTTATAACACACACACAAGAATACCTATA [CACACA_site6705],8.81 ± 0.46
6,AAAAAAAAAAAAATATATATATATATATATATATAT [GTGCAC_negctrl_site212],10.1 ± 0.24
7,AAATGTAAATTTATCCGTACATATATATATTTATAT [XGTACX_site7024],8.47 ± 0.38
8,AAAAAAAAAAATTAAAGTACAAAAATATTAAAAATA [XGTACX_site6517],8.38 ± 0.38
9,TCTGTTAAACAAAAAAGTACTAAAATAATGTAAAAT [XGTACX_site6826],8.85 ± 0.45
10,TTAACAAAACATAAGGTGCTTAAAATTTTATATCAC [GTGCAC_site9839],8.62 ± 0.11
11,ATTATTATATATGTATGTACTTATATAATATATATA [XGTACX_site5198],8.29 ± 0.2
12,TATATATTGTTATATACACACATGTATTTAAAAAAT [CACACA_site5737],8.29 ± 0.35
13,ATATGTACAAGTGTTTATGCTGAACGGAAATCCTGT [CACACA_negctrl_site1372],8.47 ± 0.45
14,TACCTATATAGACACACACACATATATTTATTTATA [CACACA_site6728],8.58 ± 0.37
15,ATGTATTAAAATTTATGTACTTATATATAAATATAT [XGTACX_site1025],8.3 ± 0.3
16,TATATGTATTTGTATACACACAAATGTATATATTTA [CACACA_site1265],8.21 ± 0.49
17,CATACCTTTTAATGTACACACATTTCTTTTTTGTTA [CACACA_site892],8.88 ± 0.28
18,AAAAAAAAAAGAAACACACACATATATATATAGAAT [CACACA_site1777],8.73 ± 0.59
19,AATATATATACTATAACACACATACACCCAAAAAAA [CACACA_site4453],8.96 ± 0.47
20,TTATATGGATATACAGTGCATATATACATATAAGTG,8.61 ± 0.26
21,TATAAACATAATATTTAACACACATGAAGATGTATA [CACACA_site8252],8.24 ± 0.47
22,TACATATATTATACATGTACACATTTATACATATCG [XGTACX_site2866],8.65 ± 0.32
23,ATATGATCATACTGTGCATGTTAATGCAAATTTTAT [TGCATGCA_site984],8.75 ± 0.37

row,Sequence,gcPBM binding intensity (ln)
1,TTCTCCTAATAGTTAGTGCACTACATAACTAAGAAA,9.38 ± 0.78
2,ATAATTGTCCATTTTTTCTTTTTTTTTTTCTTTTTA [CACACA_negctrl_site928],8.52 ± 0.51
3,TTTTTTTTTATATAAAAAAAAATTTTTATTATTTTA [GTGCAC_negctrl_site347],8.21 ± 0.39
4,CGCACAGACGGACACACACACACATATATATATATA [CACACA_site5249],10.1 ± 0.4
5,AAAAAAAAAAAAAAAACACACATTTAGCAATCTACA [CACACA_site3706],8.67 ± 0.18
6,ATGATACTAAAAAATTGTACATATAACAAAAGGTAT [XGTACX_site2527],8.88 ± 0.3
7,CATATATTTTGAAACACACACATATATAATATACAT [CACACA_site1158],8.59 ± 0.35
8,TTATCATTATATAGTTGTACATATTTATTTATAAAA [XGTACX_site2310],8.46 ± 0.53
9,TTTGTATAATACATGTGTACGTATTTTTATATAAAT [XGTACX_site8656],8.72 ± 0.34
10,AGAACTAAAAGAACATGTACATAAATTCTAAATAAT [XGTACX_site4084],8.55 ± 0.44
11,TATTTTGTTTTAAAAGTACACACTTTTAATTAGATT [CACACA_site1180],8.46 ± 0.22
12,ATAACAAAATGAAGAGTGCATTACCAAGTGGGTAAA [GTGCAC_site9450],8.93 ± 0.22
13,TTAATTTGTTCTTACACACACATATAAATATATTTA [CACACA_site6676],8.71 ± 0.33
14,ATATTTAAGGCGTGTATGCACACGACTATTCCGTAT [CACACA_site1080],8.45 ± 0.31
15,CTGAAGGAAAAAGAAAGTACTTTTTTTTTTTTGAAG [XGTACX_site5973],8.3 ± 0.42
16,ATGTTTTATAAAAGGCGTACACATATGCTTAAGTAA [XGTACX_site6232],8.94 ± 0.46
17,CCTTTATTTTATATGTGTACTAAATTGTATATATAT [XGTACX_site8717],8.81 ± 0.19
18,AAAAAAAAAATATCATGTACAAATATAATAAAATTT [XGTACX_site3896],8.38 ± 0.33
19,TATAGCAAAAAATTTACACACATGTTTTTTCTATAC [CACACA_site325],8.57 ± 0.38
20,GGCATTTTATGAAGTAGTACCATAAATATTAAAGAT [XGTACX_site5287],8.86 ± 0.33
21,AATTAAAATAGTAATACACACTTCATAGGAAATGAT [CACACA_site5045],8.21 ± 0.42
22,TATGTATCAAATAAATGTACATATATATATATATAT [XGTACX_site2189],10.1 ± 0.49

# — the supplement of paper PMC11417369
